Laboratory results published in PubChem BioAssay AID1458 (National Center for Advancing Translational Sciences (NCATS), 2008).
Out of some 210,000 compounds screened, about 5,900 (2.8%) were called active. Inconclusive results, whose numbers are uncertain, are shown with a selection of clear calls. The call rests on the fitted dose curve; in most records, active means well fitted activation curve with a large enough effect; inconclusive means small, poorly fitted or top-dose-only effect; inactive means no such curve, though single readings can be large or run the other way. Potencies beside an inconclusive call are fits to weak or partial responses and may not hold up.

Assay: qHTS Assay for Enhancers of SMN2 Splice Variant Expression; further: nearly all actives have a fitted effect of over 55% in size; on activity change, positive = activation: % of control where 0% means no effect
Settings: HEK293 SMN2-luciferase splicing reporter, luminescence, 30-36 h; activity change, positive = activation: at 46.1 µM (top of the series)
Outline: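 HEK293 cells carry an SMN2 minigene-luciferase reporter in which exon 7 inclusion puts luciferase in frame. Cells were seeded at 2000 cells/well, attached for 10-12 hours, then exposed to compounds for 30-36 hours at 37C before ONE-Glo luminescence.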
Potency means the concentration at half of the fitted maximal effect; tags describe the fitted curve by direction and shape.

| Compound | Potency | activity change, positive = activation |
| --- | --- | --- |
| COc1ccccc1/C=N/n1cnnc1 | inconclusive: 0.501 µM [activator, full curve, poor fit] | – |
| Cn1c(C(=O)N2CCCC(C(=O)NCc3ccc4c(c3)OCO4)C2)cc2sccc21 (stereo not given) | – | inactive: -5.28% |
| Cc1ccc(C(=O)Nc2ccccc2C(=O)O)cc1S(=O)(=O)N1CCCCCC1 | inconclusive: 22.4 µM [activator, single point] | – |
| Cc1nc(C)c2c(=O)cc(-c3ccccc3)[nH]c2n1 | inconclusive: 3.98 µM [activator, full curve, poor fit] | – |
| CC(C)CC1(C)NC(=O)N(CC(=O)Nc2ccc3c(c2)CCC3)C1=O (stereo not given) | inconclusive: 5.62 µM [activator, single point] | – |
| CCc1ccc2oc(-c3cccc(NC(=O)c4cc5ccccc5o4)c3)nc2c1 | inconclusive: 5.62 µM [activator, full curve] | – |
| COc1cccc([C@@H]2Oc3ccc(Br)cc3C[C@H]2OC(=O)NS(=O)(=O)c2ccc(F)cc2)c1 | – | inactive: -8.96% |
| c1ccc2oc(NC3=NCN(CC4CCCO4)CN3)nc2c1 (stereo not given) | active: 12.6 µM | – |
| CSc1nsc(SC)c1C(=O)N1CCN(S(=O)(=O)c2ccc(C)cc2)C1C (stereo not given) | – | inactive: -9.84% |
| COC(=O)c1ccc(COC(=O)c2ccc(CO)cc2)o1 | inconclusive: 0.0251 µM [activator, full curve] | – |
| CS(=O)(=O)c1cccc(C(=O)NC(c2ccccc2)c2ccccc2)c1 | – | inconclusive: 33.1% [activator] |
| CCC(=O)n1nc(NCc2ccccc2OC)nc1NCc1ccccc1OC | inconclusive: 5.01 µM [activator, partial curve] | – |
| COC(=O)c1ccc(NC(=O)c2ccc(OC(C)=O)c(OC)c2)cc1 | inconclusive: 35.5 µM [activator, single point] | – |
| O=C(CCS(=O)(=O)c1cccc2nsnc12)NCc1ccccc1Cl | inconclusive: 0.0794 µM [activator, full curve, poor fit] | – |
| O=C1Nc2ccccc2Nc2ncccc21 | inconclusive: 0.0032 µM [activator, full curve, poor fit] | – |
| O=C(c1cccc(F)c1)N1CCC2(CCCN(c3ccc(-c4ccccc4)cc3)C2)CC1 | inconclusive: 35.5 µM [activator, single point] | – |
| O=C(/C=C/c1ccc(OCc2c(F)cccc2Cl)cc1)N1CCOCC1 | inconclusive: 35.5 µM [activator, single point] | – |
| COC(=O)CNC(c1ccccc1)c1cc(Br)ccc1NC(=O)c1ccccc1 (stereo not given) | – | inactive: -16.9% |
| O=C(c1ccco1)N1CCN(C2CC(=O)N(c3ccc4c(c3)OCO4)C2=O)CC1 (stereo not given) | inconclusive: 0.282 µM [activator, full curve] | – |
| Cc1ccc(NC(=O)C(c2ccc(Cl)cc2)N2CCOCC2)cc1 (stereo not given) | inconclusive: 0.355 µM [activator, full curve, poor fit] | – |
| COc1cc(C(=O)n2nc(C)cc2C)ccc1O | inconclusive: 6.31 µM [activator, partial curve, poor fit] | – |
| CCCCNC(=O)c1onc(CSc2cccc(OCC)c2)c1C(=O)O | inconclusive: 35.5 µM [activator, single point] | – |
| Cc1nc2sc(C(=O)N(C)c3ccccc3)c(NC(=O)c3ccccc3Cl)c2c(C)c1C | – | inactive: -15.3% |

| Compound | Potency | activity change, positive = activation |
| --- | --- | --- |
| O=C(C/C=N/OCc1c(Cl)cccc1Cl)c1ccccc1 | – | inactive: -4.94% |
| Cc1ccc(NC(=S)NNC(=O)c2nnn(-c3ccccc3)c2C)cc1 | – | inactive: 14.7% |
| CC1CC(=O)N(CC(=O)NCc2ccco2)c2ccccc2S1 (stereo not given) | – | inactive: -5.83% |
| COc1ccc(-c2nsc3c(N4CCCC4)ncnc23)cc1 | inconclusive: 3.16 µM [activator, partial curve] | – |
| Cc1ccc(S(=O)(=O)/N=C(\c2ccc(F)cc2)n2c(C)nc3ccccc32)cc1 | inconclusive: 0.01 µM [activator, full curve, poor fit] | – |
| O=C1/C(=C/c2cccc3ccccc23)CCCc2ccccc21 | inconclusive: 17.8 µM [activator, single point] | – |
| CCCCc1nc2sc3c(=O)n(N)cnc3c2c2c1CCC2 | – | inactive: -9.02% |
| CCN(CC)Cc1c(NC(=O)c2ccc(OC)cc2)sc2c1CCCC2 | inconclusive: 5.62 µM [activator, partial curve] | – |
| Cc1ccc(SCC(=O)Nc2cccc(NC(=O)c3ccco3)c2)cc1 | – | inactive: -15% |
| O=C(NCC1OCCc2ccccc21)c1ccco1 (stereo not given) | inconclusive: 10 µM [activator, partial curve, poor fit] | – |
| O=C(NCCCN1CCCC1=O)c1nnc(Cc2c(F)cccc2Cl)o1 | inconclusive: 0.0794 µM [activator, full curve, poor fit] | – |
| CN1c2ccccc2C(C)(C)C12CC(c1cccc(S(=O)(=O)N3CCCC3)c1)=NO2 (stereo not given) | inconclusive: 35.5 µM [activator, single point] | – |
| COc1cccc(NC(=S)NN=C2CCCCCC2)c1 | active: 14.1 µM | – |
| O=C(CCc1nc2ccccc2c(=O)[nH]1)OCc1ccc(-c2ccccc2)cc1 | inconclusive: 5.62 µM [activator, single point] | – |
| O=C(O)c1cccc(N=NN2CCOCC2)c1 | inconclusive: 11.2 µM [activator, partial curve] | – |
| Cc1cc(-c2ccccc2)nn1-c1nc2c(c(=O)[nH]c(=O)n2C)n1C | inconclusive: 4.47 µM [activator, partial curve] | – |
| COc1ccc(-c2nc3nc(C)c(Cc4ccccc4)c(=O)n3[nH]2)cc1 | – | inconclusive: 32.8% [activator] |
| Cc1ccc(NC(=O)c2c(NC(=O)c3ccccc3)sc3c2CCC3)cc1 | – | inactive: 2.14% |
| CCOc1ccc(C(=O)NC(=S)Nc2cccnc2)cc1 | inconclusive: 1.12 µM [activator, full curve, poor fit] | – |
| O=C1/C(=C/c2ccco2)CCc2ccccc21 | inconclusive: 25.1 µM [activator, partial curve, poor fit] | – |
| CSc1ccccc1-c1nnc(-c2ccc(Cl)cc2Cl)o1 | inconclusive: 35.5 µM [activator, single point] | – |
| CC(=O)Nc1ccc(N2CCCC(C)C2)c([N+](=O)[O-])c1 (stereo not given) | – | inactive: 1.53% |
